Results as given in publication PMC6919601, “Identification of Plasmodium dipeptidyl aminopeptidase allosteric inhibitors by high throughput screening” (PLoS ONE, 2019).
Hit rate of the full screen: of about 110,000 compounds, about 230 (0.21%) showed an effect of 50% or more. Some of the results follow.

Each molecule was assayed against DPAP1 (Plasmodium falciparum, UniProt Q8IIJ9) (assay: primary screen, percent inhibition; read by cleavage of a fluorogenic dipeptide substrate; higher = more effect of the substance).
Set-up: species or system P. falciparum D10 trophozoite lysates; single well
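Also: 30 min substrate incubation versus DMSO and 10 µM JCP410 controls.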

Chain of DPAP1 (Q8IIJ9 whole entry, looked up): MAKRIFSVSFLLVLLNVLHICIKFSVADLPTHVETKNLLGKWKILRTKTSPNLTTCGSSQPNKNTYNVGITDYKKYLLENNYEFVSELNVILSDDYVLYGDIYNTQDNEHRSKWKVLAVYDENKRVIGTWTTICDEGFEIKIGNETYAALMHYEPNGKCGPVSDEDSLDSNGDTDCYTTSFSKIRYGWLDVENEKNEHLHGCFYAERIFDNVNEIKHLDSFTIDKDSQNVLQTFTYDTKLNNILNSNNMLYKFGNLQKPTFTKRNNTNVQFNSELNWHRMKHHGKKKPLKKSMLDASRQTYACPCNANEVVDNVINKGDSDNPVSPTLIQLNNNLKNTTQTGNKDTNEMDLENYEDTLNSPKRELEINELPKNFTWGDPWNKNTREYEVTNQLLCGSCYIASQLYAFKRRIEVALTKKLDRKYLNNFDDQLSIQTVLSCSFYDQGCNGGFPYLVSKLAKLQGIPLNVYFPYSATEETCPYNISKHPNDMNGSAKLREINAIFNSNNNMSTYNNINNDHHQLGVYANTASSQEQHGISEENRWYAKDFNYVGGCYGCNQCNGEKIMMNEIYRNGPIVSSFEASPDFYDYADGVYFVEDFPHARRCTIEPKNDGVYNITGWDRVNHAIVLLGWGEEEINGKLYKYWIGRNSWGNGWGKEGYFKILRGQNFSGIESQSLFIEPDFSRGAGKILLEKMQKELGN

Structure (SMILES) | % Inhibition @ 10 uM
CCOC(=O)N1CCN(S(=O)(=O)c2ccc(C)c(C)c2)CC1 | 3.14%
CC1=C(C(=O)Nc2cccc(F)c2)C(c2ccccc2Cl)C2=C(O)CC(C)(C)CC2=N1 (centres unmarked) | -0.941%
CC[C@H](C)NC(=O)CCCc1nnc2n(C)c(=O)c3sccc3n12 | 0.0603%
Cc1ccc(CNC(=O)c2ccc3nc(N4CCOCC4)sc3c2)cc1 | 31.8%
Cc1nc2c(c(C)c1CCC(=O)NCCN1CCC(Cc3ccccc3)CC1)c(=O)n(C)c(=O)n2C | -3.1%
Cc1ccc(C(=O)Nc2ccc(Cl)c(Cl)c2)cc1 | -3.04%
O=C1c2ccccc2-c2c1cccc2C(=O)N1CCOCC1 | 0.147%
COc1cc(OC)c(CNC2CCCCCC2)cc1Br | 7%
C=CCOc1ccc(C(=O)C2=C(O)C(=O)N(CCN3CCOCC3)C2c2ccc(OC)cc2)c(C)c1 (centres unmarked) | 4.54%
CCOC(=O)c1nnc2ccnn2c1N | 5.32%
CCSc1ncc(Cl)c(C(=O)Nc2nnc(C)s2)n1 | -1.11%
COc1cc(-c2nc3n(n2)C(c2ccc4c(c2)OCO4)C2=C(O)CCCC2=N3)cc(OC)c1OC (centres unmarked) | 3.59%
N#Cc1c(C#N)c(-c2ccccc2)n(-c2ccccc2)c1N | 1.13%
COc1ccc(CCN2C(=O)NC(NC(=O)c3ccc(F)cc3)(C(F)(F)F)C2=O)cc1OC (centres unmarked) | 0.413%
CCC(C)NC(=O)C1CCN(C(=O)c2cnn(-c3ccccc3)c2-n2cccc2)CC1 (centres unmarked) | 3.4%
CC12CN3CC(c4ccccc4)(CN(C1)C3c1ccc(OCc3ccccc3)cc1)C2=O (centres unmarked) | 0.627%
CC1CCN(c2c(-c3ccc(C(C)C)cc3)c(=O)c2=O)CC1 | 0.274%
COc1ccc(NC(=O)c2cccc(C(F)(F)F)c2)cc1 | -4.66%
COc1ccc(NC(=O)C2C3C=CC(CC3)C2C(=O)O)cc1 (centres unmarked) | -1.88%
COc1ccc(N(CC(=O)Nc2ccc(Cl)cc2)S(=O)(=O)c2ccccc2)cc1OC | 0.528%
CCOc1cc(C2C(C#N)=C(N)Oc3[nH]nc(CC)c32)ccc1OCCN1CCOCC1 (centres unmarked) | 3.46%
O=C(NC1CCN(Cc2ccccc2)CC1)[C@@H](c1ccccc1)N1Cc2ccccc2C1=O | -0.465%
Cc1ccc2c(c1)C(SCC(=O)NC1CCCCC1)CC1(CCCC1)O2 (centres unmarked) | -0.971%
CCc1nnc(NC(=O)C2CCN(c3ncnc4c3nc3n4CCCCC3)CC2)s1 | -0.238%
O=C(Nc1cccnc1)c1ccc(C(F)(F)F)cc1 | 1.96%

Structure (SMILES) | % Inhibition @ 10 uM
O=C(CNC(=S)N(Cc1ccc(F)cc1)C1CCCCC1)NCC1CCCO1 (centres unmarked) | -0.406%
CCCCNC(=O)c1ccc(CS(=O)(=O)c2ccc(Br)cc2)o1 | 2.14%
Cc1cc2ccccc2c(=O)n1CC(=O)NCC(=O)Nc1nc2ccccc2s1 | 3.61%
O=C1C2C3C=CC(C3)C2C(=O)N1c1cccc(Cl)c1Cl (centres unmarked) | -8.42%
CSc1ncc(C(=O)Nc2nccs2)c(C)n1 | -2.13%
CCOC(=O)C1=C(CC)OC(N)=C(C#N)C1c1ccc(O)cc1 (centres unmarked) | -3.35%
Clc1ccccc1N1CCN(Cc2cccs2)CC1 | -3.77%
COc1ccc(C(=O)ON2C(=O)c3cccc4c(Cl)ccc(c34)C2=O)cc1 | 5.65%
COCCCn1c(=N)c(C(=O)NCc2cccnc2)cc2c(=O)n3ccccc3nc21 | 3.6%
CC(NC(=O)c1ccc(CN2CCc3ccccc3C2)cc1)c1ccccc1 (centres unmarked) | -2.13%
O=C(NCCC1=CCCCC1)c1ccc(CS(=O)c2cccc(Cl)c2)o1 (centres unmarked) | 6.65%
Cc1cc(C(F)(F)F)nc(SCc2ccc(C(=O)O)o2)n1 | -13.6%
CCOC(=O)c1c(S(=O)(=O)NCCOC)c(C)n(C)c1C | -6.07%
CC(=O)NC12CC3(C)CC(C)(CC(O)(C3)C1)C2 | -0.833%
COc1ccc(C2C(C#N)=C(N)Oc3nc(O)nc(O)c32)c(OC)c1 (centres unmarked) | 3.25%
Cc1nnc2c3ccccc3nc(NC3CCCCC3)n12 | -1.95%
CCCCOC(=O)c1c(N)n(-c2ccc(C(=O)OCC)cc2)c2nc3ccccc3nc12 | 5.17%
COc1cc(/C=C2/C(=O)NC(=O)N(C)C2=O)cc(Br)c1O | 2.18%
CCCCOC(=O)c1ccc(N2CCCCC2)cc1 | -3.77%
Cc1ccc2oc(C(=O)NC3CCS(=O)(=O)C3)cc(=O)c2c1 (centres unmarked) | 0.248%
CC(C)(C)NC(=O)C(C)(C)Oc1ccc(Cl)cc1 | 0.793%
O=C1/C(=C\c2ccc3c(c2)OCO3)CCC/C1=C\c1ccc2c(c1)OCO2 | -1.06%
C=C(C)Cn1c(N2CCCCC2)nc2c1c(=O)n(C)c(=O)n2C | 0.635%
Cc1ccc(C2C(C#N)C(=O)NC(=O)C2[n+]2ccccc2)cc1 (centres unmarked) | -1.07%
O=C1S/C(=C\c2ccc(Br)o2)C(=O)N1CCOc1ccc(F)cc1 | 0.0999%

Structure (SMILES) | % Inhibition @ 10 uM
CCN(CC)CCN(C)Cc1coc2ccc(C)cc2c1=O | 3.48%
CCOC(=O)c1oc2c(CN3CCCC(C)C3)c(O)ccc2c(=O)c1-c1ccc(OC)cc1 (centres unmarked) | -2.91%
COc1ccc(Br)cc1C1CC(=O)N2CN(C3CCCCC3)CSC2=C1C#N (centres unmarked) | 60.2%
CCOc1cc(CNc2ncc(-c3ccc(Br)cc3)n2C)ccc1O | -2.91%
COc1cc(/C=C2\NC(=O)N(Cc3ccc(Cl)cc3)C2=O)ccc1OCc1cccc(C(=O)O)c1 | 5.18%
O=C(NC1CCCC1)C1CCCN(C(=O)c2cnn(-c3ccccc3)c2-n2cccc2)C1 (centres unmarked) | 1.38%
CN1CCN(C(=O)C(Cc2ccccc2)N2Cc3ccccc3C2=O)CC1 (centres unmarked) | -7.33%
CCN1CCN(C2CCN(C(C)=O)CC2)CC1 | -3.57%
Cc1nc2ccccc2nc1SC(C(=O)O)c1ccccc1 (centres unmarked) | 7.49%
CCNC(=O)CC1S/C(=N\c2cccc3ccccc23)N(C)C1=O (centres unmarked) | 0.35%
Cc1cccc(-c2nc3n(n2)C(c2ccccc2)C2=C(O)CCCC2=N3)c1 (centres unmarked) | 0.275%
Cc1ccc(Cl)cc1-n1nnc(-c2ccccc2)n1 | 1.67%
O=C1NC(=O)C2(C(=O)N1)C(c1ccc(OC(F)F)cc1)NC(=O)NC2c1ccc(OC(F)F)cc1 (centres unmarked) | -5.33%
CCOC(=O)N1CCN(CC(O)COCc2ccc(Cl)cc2)CC1 (centres unmarked) | -5.28%
N#Cc1cn(CC(=O)Nc2ccc(Br)cc2)c2ccccc12 | -5.34%
Cc1ccccc1CN1CCN(c2cccc(Cl)c2)CC1 | -5.91%
Cc1cccc(CCNC(=O)CCc2c(C)nc3cc(-c4ccccc4)nn3c2C)c1 | 1.26%
CC(C)Cc1ccc(C(=O)NCCOc2ccccc2)o1 | 1.76%
CC(C)OCCCNC(=O)C(C)n1sc2ccccc2c1=O (centres unmarked) | -0.542%
O=C(Nc1ccncc1)c1cc(-c2ccc(Br)cc2)nc2ccccc12 | 2.43%
Cc1cc(C)c2c3c(sc2n1)C1(CCN(C(=O)c2ccccc2)CC1)C(C#N)=C(N)O3 | 3.93%
COc1ccc(CN2C(=O)c3oc4ccc(Cl)cc4c(=O)c3C2c2ccc(O)cc2)cc1 (centres unmarked) | -5%
CCCCCOC(=O)CSc1nnc(-c2ccccc2)o1 | 1.43%
CCC[C@@H](NC(=O)[C@H](CC(C)C)c1cccc(-c2cccnc2)c1)C(=O)c1nc2ccccc2o1 | 6.03%
CSc1nc2c(c(=O)[nH]c(=O)n2C)n1Cc1ccccc1 | -1.44%

Structure (SMILES) | % Inhibition @ 10 uM
Fc1ccc(OCCCN2CCOCC2)cc1 | -2.12%
Cc1nonc1NC(=O)C(C)C | -1.47%
Cc1noc(C(=O)NC2CCCCC2)c1Cl | -3.45%
O=C(NCc1ccc2c(c1)OCO2)c1cc2c(s1)CSC2 | 4.47%
CN(Cc1ccccc1)C(=O)C(=O)c1c[nH]c2ccccc12 | 5.31%
CC(CNC(=O)c1ccc(CSc2nc3ccncc3[nH]2)cc1)c1ccccc1 (centres unmarked) | -3.35%
O=C(NC1CCCCCC1)c1ccc(CNc2c(NC3CCCCC3)c(=O)c2=O)cc1 | -4.04%
C=CCn1c(=O)c(C(=O)Nc2nc(C34CC5CC(CC(C5)C3)C4)cs2)c(O)c2ccccc21 | 3.9%
FC(F)Oc1ccccc1C1CC(c2ccc(Br)cc2)Nc2ncnn21 (centres unmarked) | -5.19%
CN(C)CCNC(=O)c1ccc(CS(=O)Cc2ccc(Cl)cc2)o1 (centres unmarked) | -8.63%
COc1ccc(-c2cc3cc4c(C)coc4cc3oc2=O)cc1 | -6.29%
CS(=O)(=O)N(CC(=O)NC1CCCC1)c1ccc(Cl)c(C(F)(F)F)c1 | 0.643%
CCOc1cc(-c2cc(N)n(S(=O)(=O)c3cccc4nsnc34)n2)cc(OCC)c1OCC | 0.66%
C=CCN(C)C1CC(=O)N(c2ccc(C)c(Cl)c2)C1=O (centres unmarked) | -0.545%
COc1ccc(NC(=O)CN(c2ccc(C)cc2)S(=O)(=O)c2ccc(F)cc2)cc1 | 9.33%
Cc1ccc(-c2csc3nc(C)n(N)c(=O)c23)cc1 | -4.31%
Cn1c2c(c(=O)n(C)c1=O)C(c1cccs1)C1C(=O)c3ccccc3C1=N2 (centres unmarked) | 2.03%
COc1ccc(C2C(C(=O)N3CCC4(CC3)OCCO4)c3ccccc3C(=O)N2C)cc1 (centres unmarked) | -1.2%
CN(C(=O)C1CCCN(S(=O)(=O)c2cccs2)C1)C1CCCCC1 (centres unmarked) | 4.15%
COc1cccc(-c2nn(C)c3sc(C(=O)N4CCC5(CC4)OCCO5)cc23)c1 | 1.23%
COc1ccc(/C=C2\SC(=N)N(c3ccc(OC)cc3)C2=O)cc1 | 22.3%
O=C(c1nn2c(C(F)(F)F)cc(-c3ccccc3)nc2c1Br)N1CCOCC1 | -2.94%
C=CCc1cc(/C=C2/SC(=O)N(CC(=O)N3CCN(c4ccccc4)CC3)C2=O)cc(OC)c1O | -4.63%
